Measurements from PMC4336329 (PLoS ONE, 2015).
Screen size: about 310,000 compounds; about 2,200 (0.71%) showed an effect of 50% or more. The effect is printed as a negative number. The list shows a part of the results.

Target: human ether-à-go-go-related gene (hERG) potassium channel (human, UniProt Q12809)
Assay: primary screen, population patch clamp on CHO cells stably expressing hERG

Chain of human ether-à-go-go-related gene (hERG) potassium channel (Q12809 whole entry, looked up): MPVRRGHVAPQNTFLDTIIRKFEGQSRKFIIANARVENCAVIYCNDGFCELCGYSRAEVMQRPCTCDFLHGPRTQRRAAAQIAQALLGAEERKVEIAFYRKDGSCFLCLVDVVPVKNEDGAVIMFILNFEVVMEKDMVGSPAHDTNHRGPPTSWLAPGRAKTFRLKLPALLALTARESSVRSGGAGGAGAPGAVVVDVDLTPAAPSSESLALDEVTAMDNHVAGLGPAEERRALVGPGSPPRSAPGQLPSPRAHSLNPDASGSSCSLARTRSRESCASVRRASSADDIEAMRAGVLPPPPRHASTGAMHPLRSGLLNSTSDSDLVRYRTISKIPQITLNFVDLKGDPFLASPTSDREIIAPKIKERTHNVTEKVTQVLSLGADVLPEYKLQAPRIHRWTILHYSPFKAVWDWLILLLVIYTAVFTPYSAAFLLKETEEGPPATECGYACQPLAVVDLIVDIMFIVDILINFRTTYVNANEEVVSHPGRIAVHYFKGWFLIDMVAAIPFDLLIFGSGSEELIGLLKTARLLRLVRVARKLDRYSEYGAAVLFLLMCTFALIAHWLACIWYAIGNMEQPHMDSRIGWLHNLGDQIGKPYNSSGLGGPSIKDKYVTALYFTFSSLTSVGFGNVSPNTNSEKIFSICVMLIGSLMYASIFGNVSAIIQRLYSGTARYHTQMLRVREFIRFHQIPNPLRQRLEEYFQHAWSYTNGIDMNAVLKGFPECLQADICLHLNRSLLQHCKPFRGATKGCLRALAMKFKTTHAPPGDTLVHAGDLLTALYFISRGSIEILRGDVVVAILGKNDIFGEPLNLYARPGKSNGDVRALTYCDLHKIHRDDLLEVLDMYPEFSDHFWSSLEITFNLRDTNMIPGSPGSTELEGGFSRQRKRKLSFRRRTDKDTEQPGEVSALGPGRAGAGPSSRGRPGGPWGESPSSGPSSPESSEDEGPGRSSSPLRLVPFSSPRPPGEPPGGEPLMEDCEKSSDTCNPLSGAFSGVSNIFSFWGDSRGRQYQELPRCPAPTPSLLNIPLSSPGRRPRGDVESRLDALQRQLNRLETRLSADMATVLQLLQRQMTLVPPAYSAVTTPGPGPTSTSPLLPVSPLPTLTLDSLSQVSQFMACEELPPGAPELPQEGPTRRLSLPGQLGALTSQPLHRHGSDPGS

SMILES	hERG current change (%, negative = inhibition) at 1uM
O=C(O)c1cnn(-c2nc(-c3ccc(Br)cc3)cs2)c1C(F)(F)F	16.7%
O=C(O)c1cccc(N=C2NC(=O)C(CO)(CO)S2)c1	13.1%
O=C(NCC1CCCO1)C(c1ccc(N2CCOCC2)cc1)N(C(=O)Cn1nnc2ccccc21)c1ccccc1F (stereo not shown)	2.73%
COc1ccc(N2CCN(S(=O)(=O)c3cnc[nH]3)CC2)cc1	6.63%
COCCN1C(=O)c2ccccc2C(C(=O)Nc2ccc3c(c2)OCCO3)C1c1ccc(F)cc1 (stereo not shown)	15.8%
COc1cccc(-c2nc(CS(=O)CC(=O)NCc3ccc4c(c3)OCO4)c(C)o2)c1 (stereo not shown)	6.84%
Cc1ccc2c(c1)C1(OCCO1)C(=O)N2	7.08%
CCCN1CCN(CCNC(=O)Nc2ccccc2Cl)CC1	14.6%
CCOC(=O)[C@@H]1[C@H]2COc3ccccc3[C@H]2N2C(=O)N(c3ccc(OC)cc3)C(=O)[C@]12C	5.61%
CNc1nc(Nc2ccc([N+](=O)[O-])cc2)nc(OCC(F)(F)F)n1	5.6%
N#Cc1c(NC(=O)c2ccccc2)sc2c1CCC2	5.67%
Cc1ccc(CN2CCSc3ccc(C(=O)NCCCN4CCN(C)CC4)cc32)cc1	6.29%
O=C(CSc1nnc(Cc2cccs2)n1Cc1ccco1)Nc1cccc(Cl)c1	-1.24%
COc1cccc(/C(O)=C2/C(=O)C(=O)N(c3ccccn3)C2c2ccc(OC)c(OC)c2)c1 (stereo not shown)	17.1%
Cc1ccccc1Nc1c(N)c(=O)oc2ccccc12	3.96%
Cc1nnc(CN(C)Cc2cn[nH]c2-c2ccc(-c3ccccc3)cc2)o1	4.9%
CCN(Cc1ccc(NC(C)=O)cc1)CC1CCCN(CCc2cccc(OC)c2)C1 (stereo not shown)	9.83%
CSc1nc(-c2ccccc2)nn1C(=O)c1ccc(C)cc1	11.1%
COc1ccc(-c2cc(C(=O)N/N=C(\C)c3cccnc3)c3cc(C)ccc3n2)cc1OC	12.1%
CCOC(=O)c1c(NC(=O)COC(=O)/C=C/c2ccco2)sc2c1CC(C)(C)NC2(C)C	8.84%
COc1cccc(C(=O)C2CCCN(C(=O)CCC3=NNC(=O)CC3)C2)c1 (stereo not shown)	1.91%
C=CCSC1=N/C(=C\c2ccc(C(=O)O)cc2)C(=O)S1	14.6%

SMILES	hERG current change (%, negative = inhibition) at 1uM
O=S(=O)(c1cnc[nH]1)N1CCc2ccccc21	10.4%
CC1=C(C(=O)N2CCCCC2)C(c2cccs2)C2=C(CCCC2=O)N1 (stereo not shown)	11.3%
Cc1ccccc1NC(=S)N1CCN(c2ccccc2Cl)CC1	8.24%
Cc1ccc(NC(=O)Nc2cccn(Cc3c(F)cccc3Cl)c2=O)cc1	13.2%
CC(OC(=O)c1cc(S(=O)(=O)N2CCOCC2)ccc1F)C(=O)NC1CCCC1 (stereo not shown)	6.13%
CCN1C[C@]2(COC(=O)c3ccccc3N)CC[C@H](OC)C34[C@@H]5C[C@H]6[C@H](OC)[C@@H]5[C@](O)(C[C@@H]6OC)[C@@](O)([C@H]13)[C@@H](OC)[C@@H]42	8.51%
COc1ccc(NC(=O)CN(Cc2ccccc2)S(C)(=O)=O)cc1	1.26%
CCCN1C(=O)/C(=C/c2ccc(C)o2)NC1=S	11.5%
C=CCOc1c(Br)cc(/C=C2/NC(=S)N(C(C)=O)C2=O)cc1OC	14.9%
Cn1c(O)c(N=NC(=O)CNC(=O)c2cccnc2)c2ccccc21	12.1%
COc1ccc(CC(=O)N/N=C/c2ccc(C)s2)cc1	13.9%
O=C(NCc1ccccc1CN1CCCC1)c1ccc(OCc2cscn2)cc1	4.27%
CC(=O)N1CCN(c2ncnc3ccccc23)CC1	10.8%
COc1ccc(C(=O)[C@@H]2CC[C@](C)(C(=O)O)C2(C)C)cc1	13.5%
Cc1cc(C)c(C2C(C#N)=C(N)Oc3n[nH]c(C)c32)cc1CN1CCOCC1 (stereo not shown)	-15.5%
COc1ccc(S(=O)(=O)N2CCC(NC(=O)N3CCOCC3)CC2)cc1	3.77%
O=S(=O)(Cc1ncc(C(F)(F)F)cc1Cl)c1ccccc1	11%
Nn1c(SCc2ccccc2)nnc1-c1ccco1	13.8%
CN(Cc1ccco1)C(=O)c1c[nH]c2ccc(S(=O)(=O)Nc3ccc4c(c3)OCCO4)cc2c1=O	-7.09%
Cc1cc(OCC(=O)N2CCC(C(=O)O)(c3ccccc3)CC2)c2c(C)cc(=O)oc2c1	4.39%
Cc1c(C(c2ccccc2Cl)c2c(O)c3ccccc3oc2=O)c(=O)n(-c2ccccc2)n1C (stereo not shown)	14.9%
O=C(N/N=C/c1ccc(OC(=O)c2ccc(Br)cc2)cc1)c1ccncc1	9.74%

SMILES	hERG current change (%, negative = inhibition) at 1uM
O=c1cc(CN2CCN(Cc3ccccc3)CC2)c2cc3c(cc2o1)CCC3	-6.66%
CN(Cc1ccccc1)C(=O)CN1C(=O)c2ccccc2C1=O	9.54%
CC(=O)N(C(C)=O)N1C(=O)/C(=C/c2ccc(Cl)cc2)SC1=S	5.13%
O=C1CCCC2=C1C(c1ccncc1)c1c(nc(SCc3ccccc3)[nH]c1=O)N2 (stereo not shown)	14.1%
Cn1c(Cc2ccccc2)nnc1SCc1ccc(C(=O)O)cc1	1.26%
CCC(CC)C(=O)NCc1ccc(Cl)cc1	6.62%
O=C(Nc1cccc(S(=O)(=O)N2CCOCC2)c1)c1ccc(Cl)c([N+](=O)[O-])c1	10.6%
Cc1ccc(Cn2cnc3c(nnn3Cc3ccc(Cl)cc3)c2=O)cc1	0.735%
COCc1cc(C)nc(SC)c1C#N	13.7%
Cc1cccn2c(CNCC3(c4ccccc4)CCCC3)c(C(=O)N3CCOCC3)nc12	7.59%
COc1ccc2[nH]c3c(N4CCN(Cc5ccc6c(c5)OCO6)CC4)ncnc3c2c1	-1.31%
CCN(C(=S)Nc1ccccc1F)C1CCCCC1	5.34%
Cc1cc(C)c(NC(=O)COc2cccnc2[N+](=O)[O-])c(C)c1	11.8%
CC1(C)CC(=O)C2=C(C1)N(Cc1ccco1)C(=O)C2(NC(=O)c1ccc(Cl)cc1Cl)C(F)(F)F (stereo not shown)	6.14%
CCC1(C)N=C(c2ccc3c(c2)OCO3)CC(c2ccccc2O)N1 (stereo not shown)	11.9%
CCc1ccccc1NC(=O)c1ccccc1N1C(=O)C2C3C=CC(C3)C2C1=O (stereo not shown)	11.3%
Cc1cccc(N2C(=O)C3C(c4ccccc4)OC4(C(=O)c5ccccc5C4=O)C3C2=O)c1 (stereo not shown)	14.1%
COC(=O)C1=C(N)Oc2cc(C)n(Cc3cccnc3)c(=O)c2C1c1ccccc1OC (stereo not shown)	1.51%
Cc1cc(C)cc(Oc2coc3cc(OC(=O)c4cccs4)ccc3c2=O)c1	1.32%
Cc1ccc(C(=O)N2CCN(c3ccc([N+](=O)[O-])c(NCc4cccnc4)c3)CC2)cc1	-4.13%
CC1(C(=O)N2CC3(CC(c4cccc([N+](=O)[O-])c4)=NO3)C[C@H]2C(=O)NCC(N)=O)CC1 (stereo partly shown)	0.396%
Cc1ccc(NS(=O)(=O)c2ccc(NC(=O)C3CC3)cc2)c(C)c1	8.67%

SMILES	hERG current change (%, negative = inhibition) at 1uM
C/C(=N\Nc1nc(C(C)(C)C)cs1)c1ccc(O)cc1	8.06%
O=C(CC1CCCCC1)NCCCN1CCOCC1	12.9%
Cc1ccc(S(=O)(=O)NCCC(=O)N2CCOCC2)cc1C	-6.51%
COc1cc(CNCCNCC(C)O)ccc1OCc1ccc(Cl)nc1 (stereo not shown)	-2.27%
Cc1ccc(NC(=O)CCNS(=O)(=O)c2ccc3c(c2)oc(=O)n3C)c(C)c1	12.2%
COc1ccc(/C=C2\SC(=S)N(CCCC(=O)N3CCOCC3)C2=O)cc1OC	11.4%
Cc1ccc2cc(/C=C(\C#N)C(N)=O)c(N3CCCCC3)nc2c1	7.19%
CCN(CC)S(=O)(=O)c1ccc(C(=O)Oc2cc(C)[nH]c(=O)c2[N+](=O)[O-])cc1	1.39%
Cc1ccc(CNC(=O)Cc2noc3ccccc23)cc1	11.4%
O=C(Nc1ccc2c(c1)C(=O)N(CC1CCCO1)C2=O)c1cccc(Br)c1 (stereo not shown)	-15.2%
CCN(CC)c1ccc(/C=N/NS(=O)(=O)c2ccc(CNC(C)=O)cc2)cc1	17.8%
CCOc1ccc(NC(=O)CCSc2nnc(C)s2)cc1	-6.56%
COc1cccc(-c2nc3ccccc3s2)c1O	9.86%
CCOC(=O)Cc1cc(=O)n2[nH]c(-c3ccc(Cl)cc3)cc2n1	-0.958%
O=C(Nc1ccc(N2CCN(C(=O)c3ccco3)CC2)cc1)c1ccc(Br)cc1	13.1%
COC(=O)c1cccc(S(=O)(=O)N2CCC(C)CC2)c1	8.09%
CCCNC(=O)Cn1c2ccccc2c2nc(=O)cc(C)n21	11.7%
O=C(Nc1ccc(N2CCCC2)c(Cl)c1)c1cccc(-c2cc3ccccc3oc2=O)c1	6.86%
Fc1cccc(CSc2nnc3c(n2)[nH]c2ccccc23)c1	12%
